The whole screen tested about 220,000 compounds, of which about 16,000 (7.3%) were called active. The shares of active, inactive and inconclusive entries below differ from those in the screen. The call rests on the fitted dose curve; in most records, active means well fitted inhibition curve with a large enough effect (not every such curve was filed as active); inconclusive means small, poorly fitted or top-dose-only effect, or another doubt; inactive means no such curve, though single readings can be large or run the other way. Potencies of inconclusive entries are left out as doubtful fits.
Each compound was assayed against Aldehyde dehydrogenase 1A1 (Homo sapiens) (UniProt P00352) (assay: qHTS Assay for Inhibitors of Aldehyde Dehydrogenase 1 (ALDH1A1)). Details: Purified ALDH1A1, NADH fluorescence, propionaldehyde substrate; series mostly up to 75.3 µM; activity, negative = inhibition: at the top concentration.
Sequence of UniProt P00352 (P00352 whole entry, looked up): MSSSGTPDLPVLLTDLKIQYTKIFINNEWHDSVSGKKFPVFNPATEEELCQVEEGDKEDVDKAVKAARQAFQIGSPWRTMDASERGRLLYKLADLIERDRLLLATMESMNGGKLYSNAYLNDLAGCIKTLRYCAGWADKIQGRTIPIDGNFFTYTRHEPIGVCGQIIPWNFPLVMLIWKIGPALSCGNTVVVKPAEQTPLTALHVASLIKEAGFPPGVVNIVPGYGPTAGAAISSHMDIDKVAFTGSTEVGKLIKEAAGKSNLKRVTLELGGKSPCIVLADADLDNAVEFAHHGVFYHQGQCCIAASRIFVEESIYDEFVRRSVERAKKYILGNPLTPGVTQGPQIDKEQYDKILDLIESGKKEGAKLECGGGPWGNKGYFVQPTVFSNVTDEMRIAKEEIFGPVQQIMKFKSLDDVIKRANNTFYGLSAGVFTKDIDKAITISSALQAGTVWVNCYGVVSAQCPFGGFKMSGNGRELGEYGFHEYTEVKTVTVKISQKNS
Potency means the concentration at half of the fitted maximal effect; tags describe the fitted curve by direction and shape.
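Wherever activity, negative = inhibition is given: plate controls were no enzyme wells and a reference inhibitor.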

SMILES	Potency	activity, negative = inhibition
COc1ccc(C)cc1NC(=O)CN1CCN(S(=O)(=O)c2ccc(C(C)C)cc2)CC1	active: 5.01 µM	
Cc1ccc(C(=O)N/C(=C/c2cn(-c3ccccc3)nc2-c2ccccc2)C(=O)O)cc1	active: 11.2 µM	
COc1ccc(NC(=O)c2nnn(Cc3ccc(SC)cc3)c2N)c(OC)c1	inconclusive [inhibitor, single point]	
Cc1nn(-c2ccccc2)c(N2CCCC2)c1/C=N/NC(=S)Nc1ccccc1C(F)(F)F	inconclusive [inhibitor, single point]	
CC(=O)c1ccc(NC(=O)Oc2ccccc2)cc1		inactive: 2.98%
Cc1ccc(CNC(=O)/C=C/c2c(Cl)cccc2Cl)cc1		inactive: 6.04%
COc1ccc(-c2nn(-c3ccccc3)cc2C(=O)Nc2nc(CC(C)=O)ns2)cc1	inconclusive [inhibitor, partial curve]	
Oc1ccc(N=C/C=C/c2cccc(Br)c2)cc1-c1nc2ccccc2s1	inconclusive [inhibitor, single point]	
NC(=O)c1ccccc1NS(=O)(=O)c1cccs1	inconclusive [inhibitor, single point]	
CCCOC1CCCN(Cc2cn(C)nc2-c2ccccc2F)C1 (configuration not stated)		inactive: -2.39%
C[n+]1c2n(c3ccccc31)N=C(c1ccc(Br)cc1)CS2	active: 17.8 µM	
CC(C)NC(=O)c1cc(-c2ccco2)nn1-c1ccc(Cl)cc1	active: 28.2 µM	
COc1ccc(C(=O)N2CCC3(CCN(C(=O)Nc4ccccc4)CC3)CC2)cc1		inactive: -1.81%
CCCN(CCC)C(=O)[C@@H](CCC(=O)O)NC(=O)c1ccccc1		inactive: 18.8% [at 20.9 µM]
O=C1C2ON(c3ccccc3)C(c3ccncc3)C2C(=O)N1c1ccccc1 (configuration not stated)	inconclusive [inhibitor, single point]	
Cc1ccc(N/N=C(/Sc2nnnn2-c2ccccc2)C(=O)c2ccccc2)cc1	active: 3.16 µM	
CC1(C)CC(=O)C=C(NNC(=O)C2CCCCC2)C1	active: 12.6 µM	
CCn1nc(C(=O)NC2=NCCS2)c2ccccc2c1=O	inconclusive [inhibitor, single point]	
S=C(Nc1ccccn1)Nc1ccccc1Cl		inactive: 0.747%
Cc1cc(C)nc(Sc2ccc(C=O)cc2[N+](=O)[O-])n1	active: 7.08 µM	
COc1ccc(C2=CC(=O)CC(c3ccccc3)C2)cc1 (configuration not stated)	inconclusive [inhibitor, partial curve]	
CCn1cc(C(=O)NCc2cccnc2)c2cc(OC)c(OC)cc2c1=O	active: 25.1 µM	
c1ccc(Cc2nn3c(Cn4nnc5ccccc54)nnc3s2)cc1	active: 25.1 µM	
CCOC(=O)c1cc(-c2ccco2)nn1-c1ccc(C)cc1	active: 14.1 µM	
CCN1CCN(S(=O)(=O)c2cccc([N+](=O)[O-])c2)CC1		inactive: -4.88%
Cc1[nH][nH]c(=O)c1N=Nc1ccccc1		inactive: 8.64%

SMILES	Potency	activity, negative = inhibition
COc1cc2c(cc1OC)C(c1ccccc1O)N(C1CC(=O)N(c3ccccc3)C1=O)CC2 (configuration not stated)	active: 12.6 µM	
Cc1cccc(Oc2sc(C(=O)c3ccccc3)c(N)c2C#N)c1	inconclusive [inhibitor, single point]	
CCCC(C)c1nnc(NC(=O)C2CCCO2)s1 (configuration not stated)	active: 3.55 µM	
O=C1NC[C@H](c2ccccc2)N1		inactive: -9.04%
CCN(CC)CCN1C(=O)C(=O)/C(=C(/O)c2c(C)[nH]c(C(=O)OC)c2C)C1c1cccnc1 (configuration not stated)	inconclusive [inhibitor, single point]	
O=C(OCC(=O)c1cccs1)c1ccc(NC(=O)c2ccco2)cc1	active: 17.8 µM	
Clc1ccc(Cl)c(Cl)c1Cl		inactive: 1.43%
Cc1nnc(SCc2cc(=O)oc3ccc4ccccc4c23)n1Cc1ccccc1	inconclusive [inhibitor, single point]	
CCOC(=O)c1cc2c(n(-c3ccccc3)c1=O)CC(C)(C)CC2=O	inconclusive [inhibitor, single point]	
CCOC(=O)C1=C(C)N=c2s/c(=C\c3cccn3C)c(=O)n2C1c1cccc(OC)c1OC (configuration not stated)		inactive: 6.24%
O=C(CNc1ccccc1)c1ccc([N+](=O)[O-])cc1	active: 3.55 µM	
CC(=O)Nc1cc(NC(C)=O)ncn1		inactive: 7.46%
COc1ccc(OC)c(/C=N/N(C)c2ccccc2)c1	inconclusive [inhibitor, single point]	
Cc1nc(C)c(-c2csc(Nc3cccc(O)c3)n2)s1	inconclusive [inhibitor, single point]	
Cc1cccc(NC(=S)NNC(=O)CCn2cc(C)cn2)c1	inconclusive [inhibitor, single point]	
Cc1ccc(C(=O)N/N=C/C2=Cc3ccccc3OC2C)cc1 (configuration not stated)	inconclusive [inhibitor, single point]	
NCCC[C@@H](CC(=O)N[C@@H]1CCCC[C@H]1C(=O)N[C@H](CC(=O)N[C@@H](CCC(=O)O)CC(=O)O)Cc1c[nH]c2ccccc12)NC(=O)C[C@H](Cc1ccccc1)NC(=O)[C@@H]1CCCC[C@H]1N		inactive: 4.97%
COc1cccc(C(=O)NC(=S)Nc2ccc(N3CCCC3)cc2)c1	active: 9.46 µM	
Cc1ccc(-n2cccc2/C=C2\C(=N)N3N=C(C(C)C)SC3=NC2=O)cc1	active: 15.8 µM	
Cc1ccc(-c2cn3cccc(C)c3n2)cc1	inconclusive [inhibitor, partial curve]	
COc1ccc(C(c2nnnn2Cc2cccs2)N2CCN(c3ccc(F)cc3)CC2)cc1OC (configuration not stated)	inconclusive [inhibitor, single point]	
COc1ccc(N2CCN(CC(=O)Nc3cc(C)on3)CC2)cc1	inconclusive [inhibitor, single point]	
Fc1ccc(-n2nnc(-c3nccs3)n2)cc1		inactive: -6.58%
O=C(NCc1ccc2c(c1)OCO2)c1cc([N+](=O)[O-])ccc1N1CCCCC1	inconclusive [inhibitor, partial curve]	
COC(=O)c1ccccc1NC(=O)COC(C)=O	active: 5.62 µM	
COc1ccccc1-n1c(SCC(=O)NC2CCCC2)nc2cccnc21		inactive: -2.71%

SMILES	Potency	activity, negative = inhibition
COc1ccc(/C=N/S(=O)(=O)c2ccccc2)cc1OC	inconclusive [inhibitor, single point]	
O=C(/C=C/c1ccco1)NCc1ccccn1	inconclusive [inhibitor, single point]	
Cc1ccc(CN(Cc2cccnc2)C(=S)Nc2cccc(Cl)c2C)cc1	inconclusive [inhibitor, partial curve]	
Cc1cc(C)c(S(=O)(=O)N2CCN=C2c2ccccc2)cc1C		inactive: -13%
CCC(Oc1ccccc1)C(=O)Nc1ccsc1C(=O)OC (configuration not stated)	active: 14.1 µM	
COC(=O)c1c(-c2ccc(C)cc2)csc1N	inconclusive [inhibitor, partial curve]	
Cc1ccc(CNC(=O)c2cc3c(C)nc4ccccc4c3o2)cc1		inactive: -2.76%
O=[N+]([O-])c1ccc(-c2nnc(CNC3CCCC3)o2)cc1	inconclusive [inhibitor, single point]	
COCCCNC(=S)NCCCNc1nc2cc3c(cc2cc1C#N)OCO3	inconclusive [inhibitor, partial curve]	
Nc1ccc[n+](Cc2ccccn2)c1	inconclusive [inhibitor, partial curve]	
Cc1ccc(C(=O)Nc2sc3c(c2C#N)CCCCC3)cc1C	inconclusive [inhibitor, single point]	
CCC(C)n1nccc1NC(=O)C(C)OC(=O)c1cc2ccccc2[nH]1 (configuration not stated)	inconclusive [inhibitor, single point]	
O=S(=O)(c1ccc(Cl)c(C(F)(F)F)c1)N1CCN(CC(O)COCC2CCCO2)CC1 (configuration not stated)	inconclusive [inhibitor, single point]	
CN(C(=O)CSc1ncnc2scc(-c3ccccc3)c12)C1CCS(=O)(=O)C1 (configuration not stated)	inconclusive [inhibitor, single point]	
C=CCOc1ccc(C2OC34CCCCC3C(C#N)(C#N)C2(C#N)C(=N)O4)cc1 (configuration not stated)	inconclusive [inhibitor, partial curve]	
COC(=O)CSC1=C(C#N)C(=O)NC2(CCCCC2)S1	inconclusive [inhibitor, single point]	
CC(C)OC(=O)c1cccnc1SCc1cc(=O)n2ccccc2n1	inconclusive [inhibitor, single point]	
CC1Cc2ccccc2N1C(=S)NC(=O)c1ccco1 (configuration not stated)	active: 22.4 µM	
Cc1ccc(Cl)cc1N1CCN(C(=O)c2cccc3c(=O)c(C)c(-c4ccccc4)oc23)CC1	inconclusive [inhibitor, single point]	
COc1cc(NC(=O)CCc2nc(-c3cccs3)no2)cc(OC)c1OC		inactive: 1.53%
CC12CCC(C(=O)NCc3ccccc3Cl)(CC1=O)C2(C)C (configuration not stated)		inactive: -3.93%
Cc1nc(-c2ccccc2)sc1C(=O)CSc1ccccc1	inconclusive [inhibitor, single point]	
S=C(Nc1ccc2nc(-c3ccccn3)c(-c3ccccn3)nc2c1)N1CCOCC1	inconclusive [inhibitor, single point]	
O=C(NC(=S)Nc1cc([N+](=O)[O-])ccc1O)c1cccnc1	active: 10 µM	
Cc1nc(Nc2ccccc2Cl)sc1C(=O)Nc1ccccc1	inconclusive [inhibitor, single point]	
